PubChem BioAssay AID686978 (National Center for Advancing Translational Sciences (NCATS), 2013)
Among all 420,000 compounds or so, about 64,000 (15%) were called active. The shares of active, inactive and inconclusive entries below differ from those in the screen. Calls come from the whole dose curve; as a rule, active = well fitted inhibition curve with a large enough effect; inconclusive = small, poorly fitted or top-dose-only effect; inactive = flat fitted curve, though single readings scatter. No potency is given beside an inconclusive call; the fits are too rough.

Experiment: qHTS for Inhibitors of human tyrosyl-DNA phosphodiesterase 1 (TDP1): qHTS in cells in absence of CPT; note: nearly all actives have a fitted effect of over 55% in size
Details: DT40 Tdp1-/- hTDP1 cells, no CPT, ATP luminescence, 48 h; activity change, negative = growth inhibition: at 46.2 µM (top of the series) unless noted
In short: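 Cells were dispensed at 400 per well, compounds added by pin tool, plates incubated ≥48 hr at 37 °C, then CellTiter-Glo added for 30 min at room temperature before luminescence reading. Line: DT40 Tdp1-/- complemented with hTDP1; camptothecin omitted.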
% is set by controls: 0 for no effect and ±100 for the full control effect; potency is the fitted concentration of half-maximal effect; tags give direction and shape of the fitted curve.

SMILES	Potency	activity change, negative = growth inhibition
CCCC(=O)N(c1ccc2oc(=O)sc2c1)S(=O)(=O)c1cccs1	inconclusive [inhibitor, single point]	–
Cc1ccc(CNC(=O)C2CC3Cn4c(nc5cc6ccccc6cc54)C3N2C)o1 (stereo not drawn)	inconclusive [inhibitor, single point]	–
CN1C(=O)/C(=C/c2ccccc2Cl)Sc2ccc(C(=O)NCc3cccnc3)cc21	inconclusive [inhibitor, single point]	–
CC(=O)Nc1cccc(C(=O)Nc2ccccc2N2CCOCC2)c1	active: 25.9 µM	–
Cc1cc(NS(=O)(=O)c2ccc(NC(=O)Cc3ccc([N+](=O)[O-])cc3)cc2)nc(C)n1	–	inactive: 8.72%
COCCn1c(C(C)C)nc2ccccc21	–	inactive: 5.86%
CCc1ccc(NC(=O)CSc2nc3ccccc3c(=O)n2CCCC(=O)NCCCN2CCOCC2)cc1	inconclusive [inhibitor, single point]	–
CCc1nc2ccc(C(=O)NCC3CCCCC3)cn2c1N(C)Cc1ccc(OC)cc1	inconclusive [inhibitor, single point]	–
COc1ccc2cc(CN(CCCN3CCOCC3)Cc3nnnn3C3CCCC3)c(=O)[nH]c2c1	–	inactive: -21.1%
CC(C)[C@H](NC(=O)C1CCN(S(=O)(=O)c2ccccc2)CC1)C(=O)NCc1ccco1	–	inactive: 16.1%
CSc1cccc(NC(=S)N(CCCN2CCCC2)Cc2cccs2)c1	inconclusive [inhibitor, single point]	–
O=C(O)c1cccc(-c2ccc(/C=N/Nc3nn[nH]n3)o2)c1	–	inactive: 1.66%
COc1ccc(NC(=O)c2sc(NC(=O)COc3ccccc3)nc2C)cc1	inconclusive [inhibitor, partial curve]	–
COc1cccc(OCC(=O)O/N=C(\N)c2ccncc2)c1	–	inactive: -2.8%
Cc1ccc(Sc2nc(C)c([N+](=O)[O-])c(C)c2C#N)cc1	inconclusive [inhibitor, partial curve]	–
COc1ccc(C(=O)/C=C/c2cn(CN3CCN(C)CC3)c3ccccc23)cc1	inconclusive [inhibitor, partial curve]	–
Cc1cc(Br)cn2c(Cc3ccsc3)c(-c3cccc(Cl)c3)nc12	inconclusive [inhibitor, single point]	–
CNCc1cc2ccc(C)cc2[nH]c1=O	inconclusive [inhibitor, single point]	–
COC(=O)Cn1c(=NC(=O)CCS(=O)(=O)c2ccccc2)sc2c(OC)ccc(OC)c21	inconclusive [inhibitor, partial curve]	–
CC(C)(C)c1ccc2c(c1)N(CC(=O)NCCCN1CCN(c3ccccc3F)CC1)C(=O)CO2	inconclusive [inhibitor, single point]	–
C=CCNC(=S)N/N=C(\C)c1cccc(OC)c1	active: 2.06 µM	–
O=c1c2ccccc2ncn1CCCOc1ccccc1[N+](=O)[O-]	inconclusive [inhibitor, single point]	–

SMILES	Potency	activity change, negative = growth inhibition
CC1CN(C(=O)c2cccc(S(=O)(=O)N3CCN(c4ccccc4)CC3)c2)CC(C)O1 (stereo not drawn)	inconclusive [inhibitor, single point]	–
Cc1cc2nc[nH]c(=O)n2n1	–	inactive: 10.4%
O=C(O)CSCC(=O)Nc1ccc(Br)c(C(F)(F)F)c1	–	inactive: -18.2%
O=C(CSc1cn(CCNC(=O)c2cccc(C(F)(F)F)c2)c2ccccc12)Nc1ccc2c(c1)OCCO2	inconclusive [inhibitor, single point]	–
CCCCCn1c(CN2CCN(Cc3ccccc3)CC2)nc2c1c(=O)[nH]c(=O)n2C	inconclusive [inhibitor, single point]	–
O=C(CC[C@H]1O[C@@H](n2cnc3c(NC(=O)c4ccccc4)ncnc32)[C@H](O)[C@@H]1O)NCC1CCCO1 (stereo partly drawn)	–	inactive: -16.7%
CC(=O)N1CC(=O)N=C1SCC(=O)Nc1nc(-c2ccccc2)c(-c2ccccc2)s1	active: 13 µM	–
CC(C)c1ccccc1NC(=O)CNCCc1ccc(C(F)(F)F)cc1	active: 25.9 µM	–
C[C@H]1CN([C@@H](C)CO)C(=O)CCCn2nncc2CO[C@H]1CN(C)C(=O)CCC(F)(F)F	–	inactive: -16.1%
CCCCC1=NN(C(=O)c2cocc2C)C(O)(C(F)(F)F)C1 (stereo not drawn)	inconclusive [inhibitor, single point]	–
COc1cccc(NC(=O)C2(C)CCN2C(=O)CCC2CCCC2)c1 (stereo not drawn)	inconclusive [inhibitor, single point]	–
COc1ccccc1CNC(=O)C[C@@H]1C[C@H]2c3cc(NC(=O)c4ccc5c(c4)OCO5)ccc3O[C@H]2[C@@H](CO)O1	inconclusive [inhibitor, single point]	–
CSc1ncc(C(=O)NCc2ccc(C)cc2)c(C)n1	inconclusive [inhibitor, single point]	–
CC(C)N(C(=O)Cn1cc(S(=O)(=O)Cc2ccc(Br)cc2)c2ccccc21)C(C)C	active: 16.4 µM	–
Cc1nn(C)cc1CNC(=O)c1cc2n(n1)C(C(F)(F)F)CC(c1cccs1)N2 (stereo not drawn)	inconclusive [inhibitor, single point]	–
C[C@H]1CN([C@@H](C)CO)C(=O)c2c(c3ccccc3n2C)-c2ccccc2CO[C@H]1CN(C)C(=O)[C@@H]1CCCN1C	–	inconclusive: -34.7% [inhibitor]
CCCCN(C=O)c1c(CC)nc2ccc(C(=O)Nc3cc(-c4ccccc4)ccc3OC)cn12	active: 16.4 µM	–
COCCn1c(=S)[nH]c2cc(C(=O)NC3CCCC(C)C3C)ccc2c1=O (stereo not drawn)	inconclusive [inhibitor, single point]	–
O=C1NC[C@H](CCCCN2C[C@H](Cc3ccccc3)N(CCc3ccc(O)cc3)C(=O)C2=O)N(CC2CCCCC2)C1=O	inconclusive [inhibitor, single point]	–
COC(=O)c1sc(N2C(=O)c3oc4ccccc4c(=O)c3C2c2cccs2)nc1C (stereo not drawn)	active: 16.4 µM	–
Cc1ccc(S(=O)(=O)N2CCc3c2cc([N+](=O)[O-])cc3[N+](=O)[O-])cc1	–	inactive: -27.6%
